Data on 57 compounds can be found in publication PMC4336329 (PLoS ONE, 2015).

Out of some 310,000 compounds screened, about 2,200 (0.71%) showed an effect of 50% or more. The effect is printed as a negative number. Some of the results follow.

In the assay the target is human ether-à-go-go-related gene (hERG) potassium channel (human, UniProt Q12809). Briefly: primary screen, population patch clamp on CHO cells stably expressing hERG.
Sequence of human ether-à-go-go-related gene (hERG) potassium channel (Q12809 whole entry, looked up): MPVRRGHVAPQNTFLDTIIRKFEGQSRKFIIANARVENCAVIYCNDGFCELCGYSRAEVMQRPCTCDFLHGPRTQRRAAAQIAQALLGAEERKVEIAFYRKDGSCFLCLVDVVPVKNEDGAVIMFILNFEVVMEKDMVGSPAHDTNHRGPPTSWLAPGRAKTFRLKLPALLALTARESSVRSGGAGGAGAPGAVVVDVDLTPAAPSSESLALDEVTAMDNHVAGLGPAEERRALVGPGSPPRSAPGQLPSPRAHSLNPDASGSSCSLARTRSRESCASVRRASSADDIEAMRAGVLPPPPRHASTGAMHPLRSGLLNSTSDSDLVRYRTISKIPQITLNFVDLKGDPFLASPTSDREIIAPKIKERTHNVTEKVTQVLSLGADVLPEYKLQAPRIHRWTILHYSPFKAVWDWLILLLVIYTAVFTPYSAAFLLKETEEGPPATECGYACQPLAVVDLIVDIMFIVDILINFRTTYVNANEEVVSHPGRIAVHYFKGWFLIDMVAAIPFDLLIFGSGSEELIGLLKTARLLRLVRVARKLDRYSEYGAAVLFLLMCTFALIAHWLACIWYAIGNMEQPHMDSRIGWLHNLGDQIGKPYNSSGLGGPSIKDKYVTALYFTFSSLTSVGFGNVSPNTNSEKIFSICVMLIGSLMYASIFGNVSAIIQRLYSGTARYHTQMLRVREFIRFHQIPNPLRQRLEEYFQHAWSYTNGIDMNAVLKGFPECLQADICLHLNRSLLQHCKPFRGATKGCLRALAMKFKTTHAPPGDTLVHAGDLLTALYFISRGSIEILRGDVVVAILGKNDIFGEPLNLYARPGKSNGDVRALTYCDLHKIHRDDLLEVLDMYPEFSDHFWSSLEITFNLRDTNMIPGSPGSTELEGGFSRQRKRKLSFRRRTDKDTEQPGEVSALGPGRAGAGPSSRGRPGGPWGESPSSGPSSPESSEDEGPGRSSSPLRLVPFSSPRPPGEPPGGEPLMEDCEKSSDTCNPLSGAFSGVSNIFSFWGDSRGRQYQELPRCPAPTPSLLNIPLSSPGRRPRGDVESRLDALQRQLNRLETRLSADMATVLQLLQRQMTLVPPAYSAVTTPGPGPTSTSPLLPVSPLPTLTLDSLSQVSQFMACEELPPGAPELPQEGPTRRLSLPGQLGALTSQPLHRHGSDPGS
Take `CN1CC(=O)N(CC(=O)NCc2ccc(F)cc2)c2ccccc2C1=O`: the “hERG current change (%, negative = inhibition) at 1uM” value was 12.8%.
The same measure for `COc1ccc(C(=O)NCCCN=C2NS(=O)(=O)c3ccccc32)cc1`: 10.2%; for `COc1ccc(C(=O)NNC(=O)c2cc3cccc(OC)c3oc2=O)cc1`: 12.8%.
As for `O=C(NCCOc1ccccc1)C1Nc2ccc(OC(F)(F)F)cc2C2C=CCC12` (stereo not drawn), the “hERG current change (%, negative = inhibition) at 1uM” value is 0.456%.
Turning to `Cc1[nH]n(-c2ccccc2)c(=O)c1C(=O)c1cccc(F)c1`, the “hERG current change (%, negative = inhibition) at 1uM” value was 12.3%.
In the case of `CCC(C)(C)NC(=O)C(c1ccc(C)cc1)N(Cc1cccnc1)C(=O)c1csnn1` (stereo not drawn), the “hERG current change (%, negative = inhibition) at 1uM” value stood at 3.13%.
With `COc1cc([N+](=O)[O-])ccc1NC(=O)Nc1ccc2c(c1)OCCO2`, the “hERG current change (%, negative = inhibition) at 1uM” value worked out at 0.174%.
As for `O=C(NCc1ccco1)Nc1ccc(Br)cc1Cl`, the “hERG current change (%, negative = inhibition) at 1uM” value is listed as -18.5%.
Regarding `CC(=O)NCCc1csc(-c2ccccc2)n1`, the “hERG current change (%, negative = inhibition) at 1uM” value was determined as 18.1%.
The same measure for `CCN(CC)c1ccc(S(=O)(=O)N2CCOCC2)cc1NS(C)(=O)=O`: 11.4%; for `CCc1ccccc1NC(=O)C1=CC(c2cccs2)=NS(=O)(=O)N1C`: 0.802%.
In the case of `O=C(CN1CCN(c2ccccn2)CC1)Nc1ccccc1`, the “hERG current change (%, negative = inhibition) at 1uM” value is 11.4%.
Regarding `CN(C)c1ccc(/C=C/C(=O)c2c(O)c3ccccc3oc2=O)cc1`, the “hERG current change (%, negative = inhibition) at 1uM” value turned out to be 1.5%.
The same measure for `CCCCNC(=O)N1CCOCCOCCN(C(=O)NCCCC)CCOCC1`: -7.22%; for `Cc1cc(=O)[nH]c(NN=C(CC(C)C)CC(C)C)n1`: 12%.
As for `CCOC1CS(=O)(=O)CC1OCC` (stereo not drawn), the “hERG current change (%, negative = inhibition) at 1uM” value was 8.8%.
As for `O=C(CSc1nc(=O)n2ccccc2n1)Nc1cccc2ccccc12`, the “hERG current change (%, negative = inhibition) at 1uM” value came to 17.5%.
Turning to `O=S(=O)(Cc1ccccc1)Oc1ccccc1`, the “hERG current change (%, negative = inhibition) at 1uM” value is 11.5%.
For the compound `Cc1ccc(C(=O)OCC(=O)Nc2ccc3[nH]c(=O)[nH]c3c2)cc1[N+](=O)[O-]`, the “hERG current change (%, negative = inhibition) at 1uM” value is 13.2%.
Regarding `COc1ccc(-c2cccc(C3CC=CC4C3C(=O)N(Cc3ccccc3)C4c3ccc4ccccc4c3)c2)cc1` (stereo not drawn), the “hERG current change (%, negative = inhibition) at 1uM” value came to 8.62%.
With `COc1ccc(N(CC(=O)NC2CCCC2)C(=O)Cn2nnc(-c3ccc(OC)c(OC)c3)n2)c(OC)c1`, the “hERG current change (%, negative = inhibition) at 1uM” value is listed as 7.63%.
With `CCCCSc1nc(O)c(C2OC(=O)c3c2ccc(OC)c3OC)c(=O)n1-c1ccccc1` (stereo not drawn), the “hERG current change (%, negative = inhibition) at 1uM” value is listed as 10.8%.
The same measure for `CN(Cc1cccs1)C(=O)CSc1nnnn1C`: 2%.
With `CC(=O)Nc1cc(N2C(=O)CCC2=O)ccc1Cl`, the “hERG current change (%, negative = inhibition) at 1uM” value amounted to 1.71%.
The figure for `O=C(O)C1OC2OC3(CCCCC3)OC2C2OC3(CCCCC3)OC12` (stereo not drawn) is 8.25%; for `COc1ccc(CCNC(=O)CSc2ccc(NC(C)=O)cc2)cc1OC` it is 12.5%; for `COC(=O)C1=C(c2cc3ccccc3o2)C[C@@H]2CC[C@H]1N2C(=O)N1CCOCC1` it is 5.15%.
With `Cc1cnn(CCC(=O)NNC(=S)Nc2cccc(Cl)c2)c1`, the “hERG current change (%, negative = inhibition) at 1uM” value is -3.42%.
In the case of `CCC(=O)NCCc1nc2cc(NC(=O)c3cccs3)ccc2n1C`, the “hERG current change (%, negative = inhibition) at 1uM” value turned out to be 2.65%.
The figure for `O=C(CN(Cc1ccccc1)S(=O)(=O)c1ccccc1)N1CCOCC1` is 10.1%; for `O=C(CCCC(=O)N(CC(=O)NC1CCCCC1)c1ccccc1F)Nc1ccccn1` it is 8.81%; for `O=C(NCCc1ccccc1)C1CCC(CNS(=O)(=O)c2ccc(F)cc2)CC1` (stereo not drawn) it is 12.7%.
Regarding `CN(c1ccccc1)S(=O)(=O)c1ccc2[nH]c(=O)[nH]c2c1`, the “hERG current change (%, negative = inhibition) at 1uM” value is 8.92%.
For `CCOC(=O)c1[nH]c2ccccc2c1NC(=O)c1ccc(S(=O)(=O)N2CCCC2)cc1`, the “hERG current change (%, negative = inhibition) at 1uM” value is listed as 3.8%.
The figure for `COc1ccc(C2(CNC(=O)Cc3ccc(OC)c(OC)c3)CCOCC2)cc1` is 9.09%.
In the case of `CCNC(=O)COc1cccc(C(=O)NCc2ccccc2)c1`, the “hERG current change (%, negative = inhibition) at 1uM” value worked out at 5.5%.
Regarding `Cc1cccc(C(=O)Nc2nnc(Cc3c[nH]c4ccccc34)s2)c1`, the “hERG current change (%, negative = inhibition) at 1uM” value stood at 16.6%.
Take `O=C1C=C(NNC(=O)c2ccncc2)CC(c2ccccc2)C1` (stereo not drawn): the “hERG current change (%, negative = inhibition) at 1uM” value was found to be 7.48%.
In the case of `NNC(=O)c1ccc(CSc2nc3ccccc3[nH]2)cc1`, the “hERG current change (%, negative = inhibition) at 1uM” value is listed as 4.42%.
The same measure for `Cc1cccc[n+]1CC(=O)c1ccccc1.[Br-]`: 11.7%; for `CCOC(=O)N1CCN(C(=O)c2cn(CC(C)C)c(=O)c3c2c2ccccc2n3C)CC1`: 3.4%.
Consider `O=C(c1ccccn1)N(Cc1ccco1)C1(C(=O)NC2CCCC2)CCCCC1`, for which the “hERG current change (%, negative = inhibition) at 1uM” value is reported as -8.64%.
On to `CC#C[C@@H](CC)c1ccc2ccn(C)c2c1`, for which the “hERG current change (%, negative = inhibition) at 1uM” value worked out at 13.3%.
`Cc1cc(C)c(NC(=O)CSc2nc(=O)n(CCN3CCOCC3)c3c2CCCC3)c(C)c1`: the “hERG current change (%, negative = inhibition) at 1uM” value is -1.33%.
The figure for `COc1ccccc1Nc1cc(C(=O)NC2CCCC2)c2ccccc2n1` is 16.7%; for `O=C(CCSCc1ccc(Cl)cc1)NCc1cccs1` it is -6.38%; for `Cc1cc(C)c(NS(=O)(=O)c2ccc3c(c2)NC(=O)C(C)C(=O)N3)c(C)c1` (stereo not drawn) it is 9.35%.
In the case of `Cc1cc(C)nc(NS(=O)(=O)c2ccc(NC(=O)CCC(=O)O)cc2)n1`, the “hERG current change (%, negative = inhibition) at 1uM” value came out at 14.8%.
With `Cc1ccc(C)c(S(=O)(=O)N2CCCOC2CNC(=O)C(=O)NCc2ccco2)c1` (stereo not drawn), the “hERG current change (%, negative = inhibition) at 1uM” value was determined as 14.4%.
`Nc1ccc(-c2nnc(-c3ccc(N)cc3)o2)cc1`: the “hERG current change (%, negative = inhibition) at 1uM” value stood at 6.67%.
Turning to `O=C1/C(=C/c2ccc(O)cc2)SC(=S)N1CC1CCCO1` (stereo not drawn), the “hERG current change (%, negative = inhibition) at 1uM” value is 9.1%.
On to `COCCNC(=O)c1ccc(CS(=O)(=O)c2ccccc2OC)o1`, for which the “hERG current change (%, negative = inhibition) at 1uM” value is given as 13.6%.
For `COc1ccc(NC(=O)Nc2cccs2)cn1`, the “hERG current change (%, negative = inhibition) at 1uM” value is given as 14.8%.
`COc1ccc(CCNc2ccc(C(CC(N)=O)NC(=O)c3cc(OC)ccc3OC)cc2[N+](=O)[O-])cc1` (stereo not drawn): the “hERG current change (%, negative = inhibition) at 1uM” value is given as 11%.
The same measure for `O=[N+]([O-])c1ccc(CN2CCOCCOCCN(Cc3ccc([N+](=O)[O-])cc3)CCOCC2)cc1`: -86.9%; for `Cn1cc(CN2CCN(CC(C)(C)C)C(CCO)C2)c2ccccc21` (stereo not drawn): 8.72%.
The same measure for `CC(C)C1NC(C(=O)O)Cc2c1[nH]c1ccccc21` (stereo not drawn): 0.741%.
